PMC4336329 (PLoS ONE, 2015)
In all, about 310,000 compounds went through this assay and about 2,200 (0.71%) showed an effect of 50% or more. The effect is printed as a negative number. Some of the results follow.

What follows are compounds tested against human ether-à-go-go-related gene (hERG) potassium channel (human, UniProt Q12809) (assay: primary screen, population patch clamp on CHO cells stably expressing hERG).
human ether-à-go-go-related gene (hERG) potassium channel, sequence (Q12809 whole entry, looked up): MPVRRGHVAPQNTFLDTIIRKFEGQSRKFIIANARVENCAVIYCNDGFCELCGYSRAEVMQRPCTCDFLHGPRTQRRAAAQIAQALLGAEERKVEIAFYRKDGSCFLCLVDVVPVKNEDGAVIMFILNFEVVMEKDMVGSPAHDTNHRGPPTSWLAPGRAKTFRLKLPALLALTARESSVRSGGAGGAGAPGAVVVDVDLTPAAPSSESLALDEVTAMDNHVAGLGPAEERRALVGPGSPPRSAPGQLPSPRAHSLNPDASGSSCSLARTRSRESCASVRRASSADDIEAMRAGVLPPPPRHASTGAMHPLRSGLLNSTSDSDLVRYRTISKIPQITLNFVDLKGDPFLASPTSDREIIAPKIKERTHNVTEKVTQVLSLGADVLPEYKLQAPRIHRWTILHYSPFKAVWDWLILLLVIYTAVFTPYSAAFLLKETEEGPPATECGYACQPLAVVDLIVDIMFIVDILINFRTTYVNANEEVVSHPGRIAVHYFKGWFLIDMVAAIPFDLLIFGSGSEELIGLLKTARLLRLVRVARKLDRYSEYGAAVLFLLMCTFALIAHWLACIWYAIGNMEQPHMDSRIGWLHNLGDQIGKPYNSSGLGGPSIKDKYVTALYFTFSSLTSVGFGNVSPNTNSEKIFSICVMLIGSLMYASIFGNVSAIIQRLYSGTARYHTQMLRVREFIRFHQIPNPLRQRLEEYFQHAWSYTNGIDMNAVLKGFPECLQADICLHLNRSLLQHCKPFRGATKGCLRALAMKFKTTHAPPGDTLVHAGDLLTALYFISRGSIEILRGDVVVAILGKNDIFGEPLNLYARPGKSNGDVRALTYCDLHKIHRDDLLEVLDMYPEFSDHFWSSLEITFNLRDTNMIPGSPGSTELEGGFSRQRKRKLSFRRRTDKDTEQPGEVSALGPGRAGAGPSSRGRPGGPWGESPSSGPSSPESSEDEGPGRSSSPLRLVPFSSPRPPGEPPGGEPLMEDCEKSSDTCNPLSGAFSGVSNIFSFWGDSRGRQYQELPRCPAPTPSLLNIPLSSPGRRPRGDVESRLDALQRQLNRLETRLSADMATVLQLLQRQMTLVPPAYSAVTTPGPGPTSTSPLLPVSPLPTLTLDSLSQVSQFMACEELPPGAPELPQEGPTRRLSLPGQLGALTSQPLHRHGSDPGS

Compound	hERG current change (%, negative = inhibition) at 1uM [%]
CC12CCC(=O)N1C(C(=O)OCC(=O)Nc1ccc(S(N)(=O)=O)cc1)CS2 (centres unmarked)	14.8
CCN(CC)S(=O)(=O)c1ccc(Cl)c(NC(=O)COC(=O)c2cccn2C)c1	7.32
Cc1cccc(NC(=O)c2sc(NC(=O)c3ccco3)c(C#N)c2C)c1C	13.6
COc1ccccc1C(=O)NC(=S)Nc1ccc(N2CCN(C(=O)c3ccco3)CC2)cc1	13.5
COc1ccc(O)c(C2=Nc3ccccc3N=C(c3cccs3)C2)c1	9.52
CCn1c(=O)n(CC)c2cc(S(=O)(=O)N3CCC(c4ccccc4)CC3)ccc21	10.7
Cc1onc(-c2ccccc2Cl)c1C(=O)N1CCCCC1C (centres unmarked)	4.52
CCN(Cc1ccccc1)S(=O)(=O)c1cc(C(=O)NCCCN(C)C)ccc1OC	-3.38
O=C(Nc1ccccc1Br)c1cc[n+]([O-])cc1	17.4
CCCNC(=S)N1CC2(C)CN(C(=O)C(=O)OC)CC(C)(C1)C2=O	12.3
COc1ccc(CNCc2ccc3c(c2)OCO3)c(OC)c1OC.O=C(O)C(=O)O	11.8
CCN(CC(=O)Nc1c(F)cccc1F)C(=O)Cc1ccc2c(c1)CCC2	17.7
O=C1c2ccccc2C(=O)C1c1ccccc1F	0.0065
COc1cc(CNC2CCCC2)cc(Cl)c1OCc1ccccc1F.Cl	9.2
O=C(NC(=O)c1c(F)cccc1F)Nc1ccccc1SC(F)F	9.26
CCOC(=O)c1ccccc1NC1OC(=O)c2ccccc21 (centres unmarked)	15.7
O=C(Cn1c(C(F)(F)F)nc2ccccc21)Nc1ccccc1N1CCOCC1	9.75
O=C(COC(=O)c1ccccc1F)NC1CC1	7.9
CN(C)CCN1C(=O)c2oc3ccc(Cl)cc3c(=O)c2C1c1cccc(Br)c1 (centres unmarked)	7.41

Compound	hERG current change (%, negative = inhibition) at 1uM [%]
Cc1ccc(-c2csc3ncn(CC#N)c(=O)c23)cc1C	8.7
O=C1NC(c2ccc(Cl)cc2)=COc2ccccc21	7.65
CCc1ccc2c(CN3CCC(C(=O)OC)CC3)cc(=O)oc2c1	5.12
COC(=O)CSc1nc(NC(C)(C)C)nc(N(C)C)n1	-9.25
NC(=O)CC(NC(=O)Cc1cccc2ccccc12)c1ccc(NCCc2ccccc2F)c([N+](=O)[O-])c1 (centres unmarked)	16.1
Cc1cc(NC(=O)CSc2nc3c(c(=O)n2Cc2ccccc2)SC(C)C3)no1 (centres unmarked)	13.6
COc1cc(NC(=O)CCS(=O)(=O)c2ccc3c(c2)oc(=O)n3C)cc(OC)c1OC	17.5
COc1ccc(C(CNC(=O)c2cccc(S(=O)(=O)N3CCCC3)c2)N2CCCC2)cc1 (centres unmarked)	5.51
CC(=O)Oc1ccc(/C=N/NC(=O)CCSc2ccccc2)cc1	13.8
N#Cc1ccsc1NC(=O)COc1ccc(-c2nnco2)cc1	10
CCCNC(=O)COc1ccc(S(=O)(=O)Nc2ccc(C)cc2)cc1	-6.15
O=C1C2CCCN2C(=S)N1c1ccccc1 (centres unmarked)	8.34
CCOC(=O)CN1C(=O)S/C(=C\c2ccc(-c3ccc(C(=O)O)c(Cl)c3)o2)C1=O	10.1
O=[N+]([O-])c1cccnc1Sc1ccc(Cl)cc1	10.2
COc1cc(NC(=S)NC(=O)CC(C)C)ccc1NC(=O)c1cc2ccccc2o1	20.2
COc1ccccc1N1CCN(S(=O)(=O)CCNC(=O)C23CC4CC(CC(C4)C2)C3)CC1	13.9
O=c1cc(CO)oc(C(Nc2ccccn2)c2ccccc2Cl)c1O (centres unmarked)	13.1
O=C(CN1C(=O)CC(c2ccccc2)=Nc2ccccc21)NCc1ccco1	4.88
CCc1ccc(S(=O)(=O)N2CC(=O)Nc3ccccc32)cc1	6.83

Compound	hERG current change (%, negative = inhibition) at 1uM [%]
COc1cc(CN2CCCC(N3CCc4ccccc4C3)C2)c(Cl)cc1O (centres unmarked)	3.62
O=C(CN1C(=O)/C(=C/c2ccccc2F)Oc2ccccc21)N1CCN(c2ccccn2)CC1	10.4
CNC(=O)c1c(NC(=O)CCS(=O)(=O)c2ccc(C)cc2)sc(C)c1C	12.4
NC(=O)NCCCC(=O)OCC(=O)c1ccc2ccccc2c1	7.37
COCc1cc(C)nc2sc(C(=O)OC)c(N)c12	8.13
Nc1ccccc1Sc1ccccc1[N+](=O)[O-]	2.25
COc1ccc2nc3sc(C(=O)N4CCN(C)CC4)cc3cc2c1	-12
Cc1ccc(N2C(=O)[C@@H]3[C@H](C2=O)[C@H]2C=CC=NN2[C@@H]3C(=O)Nc2ccc(Cl)cc2)cc1	-5.19
CC1CCCC(C)N1c1nnc(N)s1 (centres unmarked)	10.6
N#Cc1ccsc1NC(=O)CN1CCN(c2ccccn2)CC1	-0.508
O=C(O)CCCC[C@@H]1SC[C@@H]2NC(=O)N[C@@H]21	3.57
COc1ccc(-n2cccc2/C=C2/NC(=O)N(c3cccc(Cl)c3)C2=O)cc1	7.56
O=C(Nc1ccc2c(c1)OCCO2)c1cnn(-c2ccccc2)n1	3.15
CC(=O)Nc1ccc(NC(=S)NC(=O)C2CCCC2)cc1	-8.3
O=C1N[C@H](Cc2ccccc2)CO1	11.8
CCOc1ccc(NC(=O)Cn2cncc2-c2ccc([N+](=O)[O-])cc2)cc1	5.94
CCN1CCN(CC(=O)c2c(C)n(Cc3ccccc3)c3ccc(OC)cc23)CC1	-6.24
Cc1cccc(NCC(=O)N/N=C\c2ccc[nH]2)c1	11.9
